Biological target: T1, BlaA (Caulobacter vibrioides, UniProt Q9A6F5)
T1 construct: gene CC_2139
Conditions: C. crescentus cells in PBS, 30 °C

## O=C(Cc1cccs1)N[C@@H]1C(=O)N2C(C(=O)O)=C(/C=C/c3ccc([N+](=O)[O-])cc3[N+](=O)[O-])CS[C@H]12 [nitrocefin]
  chromogenic hydrolysis, absorbance at 482 nm: incubated cells with the chromogenic β-lactam nitrocefin

Reference: paper PMC13046382, “Peptidoglycan recycling is critical for cell division, cell wall integrity, and β-lactam resistance in Caulobacter crescentus” (eLife, 2026)
